Patent US10894817B2, “Fatty acid modified urocortin-2 analogs for the treatment of diabetes and chronic kidney disease” (priority 2016, dated 2021)
At least one structure is not confirmed: it was looked up by name or label, or the drawing left a doubt. Some of these results come from one statement about several compounds together. Starred links: 1 amine or outer side, 2 acyl side, 3 side chain; linkers in the order of their positions; H or OH if unused. Non-standard residues stand in square brackets, D forms with d. Residues, ends and D or L forms follow the SMILES beside them. Groups on a side chain read outwards from the residue. *: point of attachment. C18 diacid = O=C(O)CCCCCCCCCCCCCCCCC(=O)*; γGlu = O=C(O)[C@H](CCC(=O)[*:2])N[*:1]; NMeI = CC[C@H](C)[C@H](NC)C(=O)O; AEEA = NCCOCCOCC(=O)O

Key:
[1] = target: T1, human CRHR1 (Homo sapiens, UniProt P34998); experiment: human CRHR1 cell-based cAMP assay (Y79 cells); conditions: statement in words; cAMP assays
T1 construct: which expresses endogenous human CRHR1; host or cells: Y79 human retinoblastoma cells
T1 sequence (P34998 24-415): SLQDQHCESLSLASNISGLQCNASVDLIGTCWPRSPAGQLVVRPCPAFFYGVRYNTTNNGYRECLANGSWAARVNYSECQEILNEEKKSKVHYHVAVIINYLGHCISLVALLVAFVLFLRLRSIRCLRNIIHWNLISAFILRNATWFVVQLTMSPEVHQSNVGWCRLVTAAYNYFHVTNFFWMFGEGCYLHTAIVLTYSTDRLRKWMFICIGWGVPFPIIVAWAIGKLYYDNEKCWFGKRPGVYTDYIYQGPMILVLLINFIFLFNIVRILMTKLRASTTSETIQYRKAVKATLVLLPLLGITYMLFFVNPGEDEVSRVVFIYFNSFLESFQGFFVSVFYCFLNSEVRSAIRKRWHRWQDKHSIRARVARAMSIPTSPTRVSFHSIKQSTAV
Experimental: CRHR agonistic activity is measured in a cell-based cAMP assay. Serial dilutions of the test peptides are made in assay buffer containing Hank's Balanced Salt Solution (HBSS, without phenol red) supplemented with 20 mM HEPES and 0.05% lactalbumin enzymatic hydrolysate (LAH) (“assay buffer”). The highest concentration that is used starts from 1 μM in the human CRHR2b, whereas 100 μM starting concentration is used in the human CRHR1 assay. A one to three dilution of the test peptides is used in both assays.
The human Retinoblastoma cell line Y79 (ATCC #HTB-18), which expresses endogenous human CRHR1, is used in the human CRHR1 assay. The cells are grown in RPMI 1640 (Hyclone, #SH30255) containing 20% fetal bovine serum and 10 mM HEPES, in suspension culture. Cells are centrifuged to remove the culture media and washed once in HBSS supplemented with 20 mM HEPES. The cells are resuspended in the assay buffer and 20,000 cells are used per treatment in the human CRHR1 assay.
The cells are dispensed into Costar 96-well black polystyrene half area EIA/RIA plates (Corning Incorporated, Corning, N.Y.) followed by the addition of the diluted peptides, each at a volume of 20 μL. The agonist induced cAMP levels are detected using a HTRF cAMP Dynamic 2 kit (CisBio, Bedford, Mass.). After incubation at 37° C. for 30 min, the assay is stopped by cell lysis via the addition of 20 μL of d2-labeled cAMP and followed by 20 μL of cryptate-labeled anti-cAMP antibody, as described by the manufacturer. Cellular cAMP (as a result of agonist stimulation) competes with the d2-labeled cAMP for binding to the antibody. HTRF detection is performed on an Envision plate reader (Perkin Elmer Life and Analytical Sciences, Waltham, Mass.) by measuring ratiometric emission at 620 and 665 nm after excitation at 320 nm.
The data are converted to picomoles of cAMP using a standard curve obtained from the same assay performed with varying concentrations of unlabeled cAMP. Percent of the maximum activation of the cells is calculated using converted picomole cAMP data by comparing to the amount of cAMP produced by 1 μM human UCN2 for the human CRHR2b or 1 μM human UCN1 for the human CRHR1 assay. The data are analyzed using a Curve Fitting Tool to calculate ED50. Numeric values shown below in Table 1 represent the mean of multiple runs (number of runs shown in parentheses) following the mean value±SEM.

[2] = target: T2, human CRHR2b (Homo sapiens, UniProt Q13324); experiment: human CRHR2b cell-based cAMP assay; conditions: statement in words
T2 construct: expressed in transfected cells; host or cells: Chinese Hamster Ovary (CHO) cells, transient transfection
T2 sequence (Q13324 1-438 isoform Q13324-2): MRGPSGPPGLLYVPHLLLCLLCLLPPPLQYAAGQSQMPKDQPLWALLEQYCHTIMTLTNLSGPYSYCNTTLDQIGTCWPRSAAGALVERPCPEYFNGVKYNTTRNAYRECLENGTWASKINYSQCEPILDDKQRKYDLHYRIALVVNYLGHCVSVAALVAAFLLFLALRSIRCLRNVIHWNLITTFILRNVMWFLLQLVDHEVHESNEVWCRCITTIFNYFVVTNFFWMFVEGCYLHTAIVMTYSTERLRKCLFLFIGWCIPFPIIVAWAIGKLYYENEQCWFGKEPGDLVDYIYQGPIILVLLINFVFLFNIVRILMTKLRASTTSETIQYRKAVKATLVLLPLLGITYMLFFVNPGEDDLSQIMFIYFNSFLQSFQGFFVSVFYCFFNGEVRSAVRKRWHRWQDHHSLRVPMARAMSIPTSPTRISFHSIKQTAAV
Experimental: CRHR agonistic activity is measured in a cell-based cAMP assay. Serial dilutions of the test peptides are made in assay buffer containing Hank's Balanced Salt Solution (HBSS, without phenol red) supplemented with 20 mM HEPES and 0.05% lactalbumin enzymatic hydrolysate (LAH) (“assay buffer”). […] A one to three dilution of the test peptides is used in both assays. Receptor over-expressing Chinese Hamster Ovary (CHO) cell line is used for the human CRHR2b assay. […] AF011406.1). Forty-eight hours after the transfection, the cells are centrifuged to remove the culture media and resuspended in fetal bovine serum containing 5% DMSO. They are cryofrozen and stored in vials in liquid nitrogen (20×10^6 cells/ml/vial). On the day of the assay, cells are thawed and resuspended in cold 30 ml culture media supplemented with 20 mM HEPES. The cells are then centrifuged to remove the media and washed once with HBSS supplemented with 20 mM HEPES. Finally, following the last centrifugation, the cells are resuspended in assay buffer. Thirty-thousand cells are used in the human CRHR2b assay for each treatment. The cells are dispensed into Costar 96-well black polystyrene half area EIA/RIA plates (Corning Incorporated, Corning, N.Y.) followed by the addition of the diluted peptides, each at a volume of 20 μL. The agonist induced cAMP levels are detected using a HTRF cAMP Dynamic 2 kit (CisBio, Bedford, Mass.). After incubation at 37° C. for 30 min, the assay is stopped by cell lysis via the addition of 20 μL of d2-labeled cAMP and followed by 20 μL of cryptate-labeled anti-cAMP antibody, as described by the manufacturer. Cellular cAMP (as a result of agonist stimulation) competes with the d2-labeled cAMP for binding to the antibody. HTRF detection is performed on an Envision plate reader (Perkin Elmer Life and Analytical Sciences, Waltham, Mass.) by measuring ratiometric emission at 620 and 665 nm after excitation at 320 nm. The data are converted to picomoles of cAMP using a standard curve obtained from the same assay performed with varying concentrations of unlabeled cAMP. […] The data are analyzed using a Curve Fitting Tool to calculate ED50. Numeric values shown below in Table 1 represent the mean of multiple runs (number of runs shown in parentheses) following the mean value±SEM.

[3] = system: db/db mice; experiment: In vivo leptin receptor deficient (db/db) mice, chronic dose administration; conditions: male db/db mice, 14 day, 5 injections

Row | SMILES | selectivity for CRHR2 over CRHR1 [1] | CRHR2 agonist activity in a cAMP assay [2] | Blood glucose AUC ([3]; 0.3 mg/kg s.c.) [mg/dL × day^−1] | Body weight change (% change ± SEM) ([3]; 0.3 mg/kg s.c.) [%] | Blood glucose AUC ([3]; 0.6 mg/kg s.c.) [mg/dL × day^−1] | Body weight change (% change ± SEM) ([3]; 0.6 mg/kg s.c.) [%]
1 | CC[C@H](C)[C@H](NC(C)=O)C(=O)N[C@H](C(=O)N[C@@H](CC(C)C)C(=O)N[C@@H](CO)C(=O)N[C@@H](CC(C)C)C(=O)N[C@@H](CC(=O)O)C(=O)N[C@H](C(=O)N1CCC[C@H]1C(=O)N[C@H](C(=O)NCC(=O)N[C@@H](CC(C)C)C(=O)N[C@@H](CC(C)C)C(=O)N[C@@H](CCC(N)=O)C(=O)N[C@H](C(=O)N[C@@H](CC(C)C)C(=O)N[C@@H](CC(C)C)C(=O)N[C@@H](CCC(=O)O)C(=O)N[C@@H](CCC(N)=O)C(=O)N[C@@H](CCC(=O)O)C(=O)N[C@@H](CCCCN)C(=O)N[C@@H](CCC(N)=O)C(=O)N[C@@H](CCC(=O)O)C(=O)N[C@@H](CCCCN)C(=O)N[C@@H](CCC(=O)O)C(=O)N[C@@H](CCCCN)C(=O)N[C@@H](CCC(N)=O)C(=O)N[C@@H](CCC(N)=O)C(=O)N[C@@H](C)C(=O)N[C@@H](CCCCNC(=O)COCCOCCNC(=O)COCCOCCNC(=O)CC[C@H](NC(=O)CC[C@H](NC(=O)CCCCCCCCCCCCCCCCC(=O)O)C(=O)O)C(=O)O)C(=O)N[C@H](C(=O)N[C@@H](CC(N)=O)C(=O)N[C@@H](C)C(=O)N[C@@H](CCC(N)=O)C(=O)N[C@H](C(=O)N[C@@H](CC(C)C)C(=O)N[C@@H](C)C(=O)N[C@@H](CCC(N)=O)C(=O)N[C@H](C(N)=O)C(C)C)[C@@H](C)CC)[C@@H](C)O)[C@@H](C)CC)[C@@H](C)CC)C(C)C)C(C)C [Example 1] (Ac-IVLSLDVPIGLLQILLEQEKQEKEKQQAK([AEEA-AEEA-γGlu-γGlu-C18 diacid])TNAQILAQV-NH2) | selective for CRHR2, over CRHR1 | have CRHR2 agonist activity | 4705 ± 147 | 11 ± 1.2 | 4409 ± 321 | 2.7 ± 2.2
2 | CC[C@H](C)[C@H](NC)C(=O)N[C@H](C(=O)N[C@@H](CC(C)C)C(=O)N[C@@H](CO)C(=O)N[C@@H](CC(C)C)C(=O)N[C@@H](CC(=O)O)C(=O)N[C@H](C(=O)N1CCC[C@H]1C(=O)N[C@H](C(=O)NCC(=O)N[C@@H](CC(C)C)C(=O)N[C@@H](CC(C)C)C(=O)N[C@@H](CCC(N)=O)C(=O)N[C@H](C(=O)N[C@@H](CC(C)C)C(=O)N[C@@H](CC(C)C)C(=O)N[C@@H](CCC(=O)O)C(=O)N[C@@H](CCC(N)=O)C(=O)N[C@@H](CCC(=O)O)C(=O)N[C@@H](CCCCN)C(=O)N[C@@H](CCC(N)=O)C(=O)N[C@@H](CCC(=O)O)C(=O)N[C@@H](CCCCN)C(=O)N[C@@H](CCC(=O)O)C(=O)N[C@@H](CCCCN)C(=O)N[C@@H](CCC(N)=O)C(=O)N[C@@H](CCC(N)=O)C(=O)N[C@@H](C)C(=O)N[C@@H](CCCCNC(=O)COCCOCCNC(=O)COCCOCCNC(=O)CC[C@H](NC(=O)CC[C@H](NC(=O)CCCCCCCCCCCCCCCCC(=O)O)C(=O)O)C(=O)O)C(=O)N[C@H](C(=O)N[C@@H](CC(N)=O)C(=O)N[C@@H](C)C(=O)N[C@@H](CCC(N)=O)C(=O)N[C@H](C(=O)N[C@@H](CC(C)C)C(=O)N[C@@H](C)C(=O)N[C@@H](CCC(N)=O)C(=O)N[C@H](C(N)=O)C(C)C)[C@@H](C)CC)[C@@H](C)O)[C@@H](C)CC)[C@@H](C)CC)C(C)C)C(C)C [Example 3] (H-[NMeI]VLSLDVPIGLLQILLEQEKQEKEKQQAK([AEEA-AEEA-γGlu-γGlu-C18 diacid])TNAQILAQV-NH2) | selective for CRHR2, over CRHR1 | have CRHR2 agonist activity | – | – | – | –
